Test results reported in PubChem BioAssay (NCATS).
The other results are listed elsewhere or left out. Shown are side measurements of this screen, not its main read-out; they come without a call. Potencies come from curve fits of mixed quality, noted in brackets.

Experiment: qHTS drug screen for cell cycle checkpoint inhibitors in PARPi-resistant BRCA-mutant ovarian cancer cell lines. (AID 1963452)
Settings: PEO1/OlaR viability, CellTiter-Glo luminescence, 96 h; measured here: PEO1 parental viability
Summary of the method: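 PEO1, PEO4 and PEO1/OlaR ovarian cancer cells, 600 per well, exposed 96 h at 37C to a dilution series. Viability read by CellTiter-Glo luminescence, normalized to DMSO and empty wells; activity summarized as Z-AUC.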
Tags give direction and shape of the fitted curve.

SMILES	AC50
COc1ccc(S(=O)(=O)NCc2ccc(C(=O)NCCc3ccc(Cl)cn3)cc2)cc1	12.3 µM [falling, partial curve]
CC(C)Oc1ccc2c(=O)c(-c3ccccc3)coc2c1	6.16 µM [falling, partial curve, poor fit]
Cc1cc(O)cc2c1[C@]1(C)CC[C@H]3C(C)(C)CCC[C@]3(C)[C@H]1C2	0.0004 µM [rising, full curve]
Cn1nccc1Nc1nccc(-c2cc3c(s2)C(C)(C)N(CCN2CCOCC2)C3=O)n1	0.347 µM [falling, full curve]
COc1nc(-c2ccc3c(c2)OCO3)n(-c2ccc(NC(=O)CSc3ccccc3)cc2)n1	15.5 µM [falling, partial curve, poor fit]
Cc1nc2ccc(C(=O)N3CCC4(CC3)CC(=O)c3c(cnn3C(C)C)C4)cc2[nH]1	15.5 µM [falling, single point]
Cc1ccsc1C(=CCCN1CCC[C@@H](C(=O)O)C1)c1sccc1C	27.5 µM [falling, partial curve, poor fit]
COC(=O)C1=C(C)NC(c2ncc(F)cc2F)=N[C@H]1c1ccc(F)cc1Cl	0.049 µM [falling, full curve, poor fit]
C=C1C(=O)OC(CCCCCCCC)C1C(=O)O (stereo not drawn)	27.5 µM [falling, partial curve, poor fit]
COc1cc2ncnc(Nc3ccc(O)c(Br)c3)c2cc1OC	13.8 µM [falling, partial curve, poor fit]
C[C@]12CCCN1CC1=NNC(=O)c3cc(F)cc4[nH]c2c1c34	1.95 µM [falling, partial curve]
COCCCOc1ccnc(CS(=O)c2nc3ccccc3[nH]2)c1C (stereo not drawn)	6.92 µM [falling, partial curve, poor fit]
O=C1S/C(=C\c2ccc(OCc3cccc(B(O)O)c3)cc2)C(=O)N1Cc1ccc(F)cc1	8.71 µM [falling, partial curve, poor fit]
CCCCNc1ncc(-c2ccc(CN3CCOCC3)cn2)c(NC2CCC(O)CC2)n1 (stereo not drawn)	9.52 µM [falling, partial curve, poor fit]
Cc1c(-c2ccc(-c3ccccc3F)cc2)nc2ccc(F)cc2c1C(=O)O	0.049 µM [falling, full curve]
CCN(CC)CCCC(C)Nc1nc(C)cc(Nc2ccc3nc(C)cc(N)c3c2)n1 (stereo not drawn)	5.49 µM [rising, partial curve, poor fit]
Cc1ccc(-c2nc(N)nc3c2nnn3Cc2cccc(CO[C@H]3CCOC3)n2)o1	27.5 µM [rising, partial curve, poor fit]
CCNC(=O)Nc1ccc(Oc2ncnc(N)c2/C=N/OC)cc1Cl	24.5 µM [falling, single point]
